Reference: PubChem BioAssay AID1508623 (National Center for Advancing Translational Sciences (NCATS), 2021)
The campaign covered roughly 48,000 compounds. About 450 (0.94%) were called active. Inconclusive results (about 19%) are left out. Calls follow the shape of the dose curve; as a rule, active = well fitted inhibition curve with a large enough effect; inconclusive = small, poorly fitted or top-dose-only effect; inactive = no such curve, though single readings can be large or run the other way. The list shows a part of the results.

Experiment: Primary qHTS for Identification of Small Molecule Inhibitors of Huntingtin Promoter Activity; also: nearly all actives have a fitted effect of over 50% in size
Conditions: HEK293 HTT promoter firefly luciferase reporter (activity 0% = vehicle and -100% = no light), 24 h; series mostly up to 57.5 µM; activity change, negative = inhibition: at the top concentration
Summary of the method: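 Firefly luciferase signal from promoter-reporter HEK293 cells was scaled between vehicle (0%) and zero RLU (-100%). Compounds were tested at final concentrations of up to 57.5 uM over 24 h at 37 degrees C. PTC124 at 50 uM final served as control inhibitor.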

Activity change, negative = inhibition, inactive:
Cc1cccc(NC(=O)CC2Nc3cccc4cccc(c34)NC2=O)c1 (stereo not drawn) -9.18%
COC(=O)c1cc2oc(C)cc2n1Cc1cc(C)ccc1C -10.2%
CCOc1ccc(NC(=O)CSc2nc(-c3cccc(Cl)c3)nc3c2Cc2c(CO)cnc(C)c2O3)cc1 -9.85%
Cc1ccc(C)c(NC(=O)Cn2ncc3c([nH]c4ccccc43)c2=O)c1 5.09%
Cc1cc2c(cc1S(=O)(=O)CCC(=O)N(C)C1CCCCC1)OCC(=O)N2 -10.9%
COCCN(Cc1ccco1)C(=O)Cn1ncc2c([nH]c3ccccc32)c1=O -2.11%
Cc1ccc(-c2nnn3c2nc(NCCc2ccccc2)c2ccccc23)cc1 -2.09%
CN(c1ncnc2c1c(-c1ccccc1)cn2-c1cccc(Cl)c1)C1CCCCC1 -26.8%
COc1cccc(NC(=O)CCc2nc(-c3ccc(C(C)(C)C)cc3)no2)c1 -85.2%
Cc1cccc(-n2c(=O)c3c(c4cc(C)ccc4n3C)n(C)c2=O)c1 -13.3%
Cc1ccc(C)c(C(=O)CSc2nc(-c3ccccc3)nc3c2CCCC3)c1 -5.07%
Cc1c(Cl)cccc1NC(=O)N1CCC(CN2CCOCC2)CC1 -9.82%
OCc1ccc(Cl)cc1Cl 0.0215%
CCOc1ccccc1NC(=O)C1CCCN(c2ncnc3onc(-c4ccc(F)cc4)c23)C1 (stereo not drawn) -15.6%
CC(C)C(=O)Nc1nnc(S(=O)(=O)N(C)Cc2ccc(F)cc2)s1 -3.65%
COc1ccc(NC(=O)C2CCN(S(=O)(=O)c3cn(C)cn3)CC2)cc1Cl -11.8%
O=C(c1ccc([N+](=O)[O-])cc1)N(Cc1ccco1)c1ccccn1 -7.88%
CC(=O)OCc1cnc(C)c2oc(=O)c(C(=O)Nc3cc(F)ccc3C)cc12 -6.68%
NC(=O)CN1C(=O)C2(SCC(=O)N2c2cccc(F)c2)c2ccccc21 (stereo not drawn) -0.0728%
COc1ccc(C2C(C(=O)Nc3ccc(C)cc3C)=C(C)Nc3nc(SC)nn32)cc1OC (stereo not drawn) -14.9%
CCCCn1c(=O)c2oc3ccccc3c2n(Cc2ccc(OC)cc2)c1=O -12.1%
Cc1cc(C)cc(NC(=O)c2cn3c4c(ccc(Cl)c4c2=O)OC(C)C3)c1 (stereo not drawn) -6.93%
CCOc1ccc(OCCOCCn2c(-c3ccc(Cl)cc3)nc3ccccc3c2=O)cc1 -13.8%
Cc1cccc(-c2nc(SCCCOc3cc(C)c(Cl)c(C)c3)n3[nH]c(=O)cc3n2)c1 -0.815%
CSc1ncc(C(=O)NCc2ccc(F)cc2)c(-c2ccccc2)n1 -0.0568%
CCCCN(CC)CCCNC(=O)Cn1nc(CC)n2c(cc3sccc32)c1=O 4.59%
COc1ccc2c(c1)c1c(c(=O)n(CCc3ccccc3)c(=O)n1Cc1cccc(C)c1)n2C -13.2%
COC(=O)CC(=O)CSc1nc2cc(C(=O)NC(C)C)ccc2c(=O)n1CCc1ccccc1 -20.1%
